Here are results for 153 variants from a collection of fitness landscapes (doi:10.1126/science.1257360).

Sequences and labels used below:
B1: PhoQ; a variant is named by its letters at X, in order, P23837 (parent)
chain: MKKLLRLFFPLSLRVRFLLATAAVVLVLSLAYGMVALIGYSVSFDKTTFRLLRGESNLFYTLAKWENNKLHVELPENIDKQSPTMTLIYDENGQLLWAQRDVPWLMKMIQPDWLKSNGFHEIEADVNDTSLLLSGDHSIQQQLQEVREDDDDAEMTHSVAVNVYPATSRMPKLTIVVVDTIPVELKSSYMVWSWFIYVLSANLLLVIPLLWVAAWWSLRPIEALAKEVRELEEHNRELLNPATTRELTSLVRNLNRLLKSERERYDKYRTTLTDLTHSLKTPLXXLQXXLRSLRSEKMSVSDAEPVMLEQISRISQQIGYYLHRASMRGGTLLSRELHPVAPLLDNLTSALNKVYQRKGVNISLDISPEISFVGEQNDFVEVMGNVLDNACKYCLEFVEISARQTDEHLYIVVEDDGPGIPLSKREVIFDRGQRVDTLRPGQGVGLAVAREITEQYEGKIVAGESMLGGARMEVIFGRQHSAPKDE

The list shows a part of the results.

The variants in the test derive from B1. In words: enrichment ratio after two sorts for PhoP signalling (ratio (wild type AVST 3.29)); higher = more functional. Particulars: with PhoP (E. coli).
Turning to PKNE, the enrichment ratio is no more than 0.25. The figure for VQYN is no more than 0.25; for INVT it is no more than 0.25; for KCRY it is no more than 0.25. The figure for DGKQ is no more than 0.25; for FRFF it is no more than 0.25.

Turning to MHTT, the enrichment ratio was no more than 0.25. In the case of LHPL, the enrichment ratio was no more than 0.25. The value for EVVL was no more than 0.25. In the case of ISLR, the enrichment ratio is no more than 0.25.

For MFIA, the enrichment ratio is no more than 0.25. The figure for GKIQ is no more than 0.25; for TIMP it is no more than 0.25; for MGSI it is 5.33. The figure for LVVY is no more than 0.25; for TFDT it is no more than 0.25. Regarding ENYQ, the enrichment ratio is no more than 0.25. The value for WCSR was no more than 0.25; that for GCAL was 3.04. The value for HRAR was no more than 0.25; that for LVSS was no more than 0.25.

As for TRLM, the enrichment ratio was 10.9. The value for VDDA was no more than 0.25; that for FVNM was no more than 0.25.

On to HSFE, for which the enrichment ratio is no more than 0.25. The value for HPRF was no more than 0.25.

Turning to GLAC, the enrichment ratio is no more than 0.25. The figure for KRSD is no more than 0.25; for SVST it is 7.46. With PSED, the enrichment ratio is no more than 0.25. The value for SNSD was no more than 0.25; that for KATW was no more than 0.25; that for KDMT was no more than 0.25. The value for ERDI was no more than 0.25; that for CFNL was no more than 0.25; that for RARM was no more than 0.25.

With LADH, the enrichment ratio was no more than 0.25. TQGQ: the enrichment ratio worked out at 28. The value for KCKL was no more than 0.25; that for LKFM was no more than 0.25. The figure for MSIV is 7.95.

In the case of HWVQ, the enrichment ratio is no more than 0.25. As for ARRY, the enrichment ratio is no more than 0.25. The value for AWSD was no more than 0.25; that for VFST was no more than 0.25.

For GMMG, the enrichment ratio was 1.1.

Take RQAK: the enrichment ratio was no more than 0.25. In the case of GYMH, the enrichment ratio was no more than 0.25. The value for FMQG was no more than 0.25; that for HNQW was no more than 0.25; that for ECHS was no more than 0.25. For the variant NCWY, the enrichment ratio is no more than 0.25.

With IECA, the enrichment ratio is no more than 0.25. The figure for NDGW is no more than 0.25; for LTME it is no more than 0.25; for YRCF it is no more than 0.25.

In the case of GYCD, the enrichment ratio was no more than 0.25. The figure for RCDY is no more than 0.25. Regarding RFQM, the enrichment ratio was no more than 0.25.

On to NWPS, for which the enrichment ratio was no more than 0.25. The figure for YINW is no more than 0.25; for ANPS it is no more than 0.25.

Regarding MFSM, the enrichment ratio was no more than 0.25. The figure for YDTK is no more than 0.25. The value for PRLE was no more than 0.25; that for DHGM was no more than 0.25. Take HDYW: the enrichment ratio is no more than 0.25.

For the variant PTLM, the enrichment ratio is no more than 0.25. The value for FFMR was no more than 0.25; that for KIWT was no more than 0.25; that for KDMD was 0.523. The figure for QVNM is no more than 0.25; for SISM it is 16. Turning to TFIH, the enrichment ratio was no more than 0.25. The figure for SLKM is no more than 0.25; for DSTF it is no more than 0.25. The value for LVFE was no more than 0.25; that for ADAG was no more than 0.25; that for YLWQ was no more than 0.25. The value for IEKN was no more than 0.25; that for DQMN was no more than 0.25; that for ELRD was no more than 0.25. In the case of YNHI, the enrichment ratio was no more than 0.25. The figure for MPAN is no more than 0.25; for KVQG it is no more than 0.25; for HKQS it is no more than 0.25. Consider KPTW, for which the enrichment ratio was no more than 0.25. For AGAF, the enrichment ratio came out at 3.66. The figure for YKQV is no more than 0.25; for LCAI it is no more than 0.25; for WHGL it is no more than 0.25. The value for AVME was no more than 0.25. The value for QDFM was no more than 0.25; that for YESI was no more than 0.25; that for VCFK was no more than 0.25. Take YDNW: the enrichment ratio is no more than 0.25. The figure for KLTA is no more than 0.25; for VWHM it is no more than 0.25.

KIDP: the enrichment ratio is no more than 0.25.

In the case of WFDF, the enrichment ratio is no more than 0.25.

As for FWAT, the enrichment ratio is no more than 0.25. The figure for VNSQ is no more than 0.25.

For SMDC, the enrichment ratio is no more than 0.25. The figure for KIHW is no more than 0.25. The figure for ELYM is no more than 0.25. The figure for FLDM is no more than 0.25; for VFMH it is no more than 0.25. For the variant CPFK, the enrichment ratio was no more than 0.25. The value for LCCV was no more than 0.25; that for NAWS was no more than 0.25; that for AFHY was no more than 0.25. The value for IKTM was no more than 0.25; that for DFIL was no more than 0.25; that for NDAA was no more than 0.25. The figure for VTTQ is no more than 0.25. On to ICRP, for which the enrichment ratio is no more than 0.25. The value for AVIH was 0.25.

Turning to FFVN, the enrichment ratio was no more than 0.25. The value for SFKA was no more than 0.25; that for LLLW was no more than 0.25; that for AYFQ was no more than 0.25.

For the variant EYPF, the enrichment ratio was no more than 0.25. The value for KKFA was no more than 0.25; that for FYWE was no more than 0.25.

Consider FQRR, for which the enrichment ratio was no more than 0.25. The value for SGSM was 12.7; that for KCGF was no more than 0.25; that for KCLA was no more than 0.25. The value for FMVM was no more than 0.25; that for WRPR was no more than 0.25; that for RTSE was no more than 0.25. With GPQR, the enrichment ratio is no more than 0.25. The figure for SNMP is no more than 0.25; for MIID it is no more than 0.25; for SKFG it is no more than 0.25. As for TALR, the enrichment ratio was found to be 3.62. The value for QFHQ was no more than 0.25; that for WSDW was no more than 0.25. The value for SGVY was 7.41; that for QGTQ was no more than 0.25; that for FVGL was no more than 0.25. The figure for VYVH is no more than 0.25; for IRAL it is no more than 0.25. As for RYER, the enrichment ratio is no more than 0.25. The value for YCCI was no more than 0.25; that for MQRP was no more than 0.25; that for NWQP was no more than 0.25. For TRLV, the enrichment ratio was 9.51.

Take RGHH: the enrichment ratio is no more than 0.25. As for TCML, the enrichment ratio came to 16.7. The value for HCVL was no more than 0.25; that for PCCS was no more than 0.25; that for KITQ was no more than 0.25.
